Data as given in the supplement of paper PMC9151546.
Single values are uncertain, as repeats are few or missing.

How the values were obtained:
[1] = system: CHO-K1; test: hypodiploid nuclei frequency (% of nucleated events); higher = more hypodiploid events (aneugenic)
[2] = system: CHO-K1; test: relative survival (nuclei to bead ratio vs DMSO control) (% of vehicle control); higher = more surviving cells
[3] = system: CHO-K1; test: micronucleus frequency (% of nucleated events); higher = more micronuclei (genotoxic)
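For hypodiploid nuclei frequency (% of nucleated events) in this document: hypodiploid nuclei gated on a flow cytometer with 488 nm excitation after SYTOX Green staining, cultures at 37 °C, positive controls vinblastine without S9 and cyclophosphamide with S9.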
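For micronucleus frequency (% of nucleated events) in this document: cells lysed with nuclei stained by SYTOX Green, then micronucleus-gated events counted against nucleated events by flow cytometry with 488 nm excitation.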
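For relative survival (nuclei to bead ratio vs DMSO control) in this document: Lysed-cell nuclei stained with SYTOX Green and counted against counting beads by flow cytometry at 488 nm excitation, with vinblastine (no S9) and cyclophosphamide (plus S9) as positive controls.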

CN(C)C(=S)S [Sodium dimethyldithiocarbamate]
Settings | hypodiploid nuclei frequency, [1] [%] | micronucleus frequency, [3] [%] | relative survival, [2]
concentration: 4.5 (µM), S9 metabolic activation: with S9, exposure time: 3-4 hours | 0.3 | 0.84 | 107
concentration: 4.5 (µM), S9 metabolic activation: without S9, exposure time: 24 hours | 0.88 | 1.58 | 65.4
concentration: 5.63 (µM), S9 metabolic activation: with S9, exposure time: 3-4 hours | 0.16 | 0.66 | 94.6
concentration: 5.63 (µM), S9 metabolic activation: without S9, exposure time: 24 hours | 0.64 | 2.02 | 71.2
concentration: 7.04 (µM), S9 metabolic activation: with S9, exposure time: 3-4 hours | 0.14 | 0.68 | 88.4
concentration: 7.04 (µM), S9 metabolic activation: without S9, exposure time: 24 hours | 0.98 | 2.52 | 55.9
concentration: 8.8 (µM), S9 metabolic activation: with S9, exposure time: 3-4 hours | 0.18 | 0.48 | 104
concentration: 8.8 (µM), S9 metabolic activation: without S9, exposure time: 24 hours | 0.6 | 1.6 | 59.6
concentration: 11 (µM), S9 metabolic activation: with S9, exposure time: 3-4 hours | 0.14 | 0.96 | 98.3
concentration: 11 (µM), S9 metabolic activation: without S9, exposure time: 24 hours | 0.7 | 1.32 | 48.7
concentration: 13.7 (µM), S9 metabolic activation: with S9, exposure time: 3-4 hours | 0.1 | 0.86 | 135
concentration: 13.7 (µM), S9 metabolic activation: without S9, exposure time: 24 hours | 0.4 | 1.62 | 59.9
concentration: 17.2 (µM), S9 metabolic activation: with S9, exposure time: 3-4 hours | 0.24 | 1.16 | 90.7
concentration: 17.2 (µM), S9 metabolic activation: without S9, exposure time: 24 hours | 0.78 | 1.52 | 58.5
concentration: 21.5 (µM), S9 metabolic activation: with S9, exposure time: 3-4 hours | 0.18 | 0.82 | 92.3
concentration: 21.5 (µM), S9 metabolic activation: without S9, exposure time: 24 hours | – | – | 38.9
concentration: 26.8 (µM), S9 metabolic activation: with S9, exposure time: 3-4 hours | 0.08 | 0.98 | 66.3
concentration: 26.8 (µM), S9 metabolic activation: without S9, exposure time: 24 hours | 0.26 | 1.36 | 45.3
concentration: 33.6 (µM), S9 metabolic activation: with S9, exposure time: 3-4 hours | 0.26 | 0.84 | 85.4
concentration: 33.6 (µM), S9 metabolic activation: without S9, exposure time: 24 hours | 0.36 | 0.97 | 44
concentration: 41.9 (µM), S9 metabolic activation: with S9, exposure time: 3-4 hours | 0.18 | 1.16 | 76.8
concentration: 41.9 (µM), S9 metabolic activation: without S9, exposure time: 24 hours | 0.35 | 1.32 | 44.2
concentration: 52.4 (µM), S9 metabolic activation: with S9, exposure time: 3-4 hours | 0.14 | 0.86 | 89.3
concentration: 52.4 (µM), S9 metabolic activation: without S9, exposure time: 24 hours | – | – | 39.8
concentration: 65.5 (µM), S9 metabolic activation: with S9, exposure time: 3-4 hours | 0.1 | 0.84 | 70
concentration: 65.5 (µM), S9 metabolic activation: without S9, exposure time: 24 hours | – | – | 31.4
concentration: 81.9 (µM), S9 metabolic activation: with S9, exposure time: 3-4 hours | 0.2 | 0.8 | 83.3
concentration: 81.9 (µM), S9 metabolic activation: without S9, exposure time: 24 hours | 0.23 | 1 | 43.3
concentration: 102 (µM), S9 metabolic activation: with S9, exposure time: 3-4 hours | 0.18 | 0.84 | 86.6
concentration: 102 (µM), S9 metabolic activation: without S9, exposure time: 24 hours | 0.32 | 0.89 | 40.7
concentration: 128 (µM), S9 metabolic activation: with S9, exposure time: 3-4 hours | 0.22 | 0.96 | 86.8
concentration: 128 (µM), S9 metabolic activation: without S9, exposure time: 24 hours | – | – | 35.7
concentration: 160 (µM), S9 metabolic activation: with S9, exposure time: 3-4 hours | 0.14 | 1.06 | 64.6
concentration: 160 (µM), S9 metabolic activation: without S9, exposure time: 24 hours | 0.22 | 0.72 | 40.7
concentration: 200 (µM), S9 metabolic activation: with S9, exposure time: 3-4 hours | 0.27 | 1.68 | 43.5
concentration: 200 (µM), S9 metabolic activation: without S9, exposure time: 24 hours | – | – | 24.3
